According to PubChem BioAssay AID1963576 (National Center for Advancing Translational Sciences (NCATS), 2024):
The whole screen tested about 46,000 compounds, of which about 60 (0.1%) were called active. About 3% were inconclusive and are not listed. Calls come from the whole dose curve; as a rule, active = well fitted inhibition curve with a large enough effect; inconclusive = small, poorly fitted or top-dose-only effect; inactive = no such curve, though single readings can be large or run the other way. Some of the results follow.

experiment: Primary qHTS assay for Inhibitors of ovarian cancer metastasis using an organotypic tumor microenvironment (TME) model.; note: nearly all actives have a fitted effect of over 65% in size;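 for activity change, negative = inhibition: plate controls were DMSO wells for no effect and tomatine positive control wells for full effect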; settings: SKOV3ip1-GFP adhesion/invasion on 3D omental model, fluorescence; series mostly up to 45.8 µM; activity change, negative = inhibition: at the top concentration
In short: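 Adhesion/invasion was scored as fixed GFP-labeled SKOV3ip1 cell counts (488/509 nm), normalized to DMSO and tomatine controls. Cancer cells in serum-free medium, with four compound doses (0.36-46 umol/L), sat 2 hr at RT then 16 hr at 37 C on a 48 hr fibroblast/mesothelial/ECM culture.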

Activity change, negative = inhibition, inactive:
O=C(O)CCn1ccc2cc(S(=O)(=O)N3CCCCC3)ccc21 -7.08%
CCOc1ccccc1NC(=O)c1nnn(CC(=O)Nc2ccccc2CC)c1N -4.08%
COc1ccc(NC(=O)c2[nH]nc3c2CSc2ccccc2-3)c(OC)c1 7.45%
O=C(Cn1nnnc1-c1ccccc1F)Nc1ccc(F)c(F)c1 19.5%
O=C(CN1CCN(c2ccc(Cl)cc2)CC1)Nc1ccc(F)c(F)c1 -5.88%
CCC(=O)N1c2ccccc2CC1C(=O)NCCc1ccc(Cl)cc1 (stereo unspecified) 7.57%
Cc1cc(C)cc(-n2ccnc2SCC(=O)Nc2ccc(C)c(Cl)c2)c1 -9.44%
Cc1ccc2oc(=O)c3cc(C(=O)Nc4cccc(C#N)c4)sc3c2c1 -12%
CC(C)c1ccc(S(=O)(=O)c2cnc(SCC(=O)Nc3ccc(F)cc3F)nc2N)cc1 -6.71%
Cc1ccc(-n2nc3c(N4CCC(C(=O)NCCC(C)C)CC4)nnc(C)c3c2C)cc1 5.82%
COc1ccc2c(c1)sc1ncc(C(=O)NCc3cccc(Cl)c3)c(=O)n12 13.9%
COc1cc(C)ccc1OCCn1c(-c2ccc(Cl)cc2)nc2ccccc2c1=O -14.3%
O=C(CC1N=C2c3ccccc3N=C(SCc3ccccc3F)N2C1=O)NCc1ccc2c(c1)OCO2 (stereo unspecified) -4.16%
CCOc1ccc(C(c2c(O)cc(C)n(CCOC)c2=O)N2CCC(C)CC2)cc1 (stereo unspecified) -2.37%
O=C(NCc1ccc(Cl)cc1)c1cnc2sc(N3CCCC3)nn2c1=O -3.29%
COc1ccc(C2c3c(n(C)c4ccccc34)C(=O)N2CC(=O)Nc2ccccc2F)cc1 (stereo unspecified) -0.41%
COc1ccc(CCNC(=O)c2ccc3c(c2)N(Cc2cccc(Cl)c2)C(=O)CS3)cc1OC -13.5%
Cc1ccc2scc(N3CCN(c4ccc(F)cc4)CC3)c(=O)c2c1 -5.72%
O=C1c2[nH]nc(-c3ccc(Br)cc3)c2C(c2cccc(O)c2)N1c1ccc(Cl)cc1 (stereo unspecified) -7.04%
COc1ccc(NC(=O)c2sc3nc4n(c(=O)c3c2C)CCC4)cc1Cl -7.19%
COc1ccc(-n2c3c(cc(-c4nc(-c5ccc(Cl)cc5)cs4)c2=O)C(=O)CC(C)(C)C3)cc1 -4.78%
O=C(Cc1ccc(NC(=O)N2CCSc3ncccc32)cc1)NCCc1ccccc1 -4.34%
CCc1ccc(CNC(=O)c2cc(-c3ccc(Cl)s3)nc3ccccc23)cc1 -8.37%
CCOc1ccc(NC(=O)Cn2c(=O)oc3cc(S(=O)(=O)N4CCCCCC4)ccc32)cc1 -2.83%
Cc1ccc(CCNC(=O)c2ccc(CSCc3ccccc3Cl)o2)cc1 31.9%
CCOc1ccc(CNC(=O)c2ccc3c(c2)c(C)c(C)n3Cc2ccc(Cl)cc2)cc1 -4.15%
CCNc1ccc(-c2nc(-c3ccco3)no2)cc1[N+](=O)[O-] -8.85%
CCOC(=O)N1CCc2c(sc3c2c(=O)n(-c2ccc(CC)cc2)c(=O)n3CC(=O)Nc2ccc(C)cc2)C1 -3.01%
Cc1ccc2oc(=O)n(CCCOc3ccc(Cl)cc3)c2c1 -6.91%
Cc1cc(C)c(NC(=O)c2cc(S(=O)(=O)N3CCN(c4ccccc4F)CC3)ccc2F)c(C)c1 0.247%
COc1cc(OC)c(Nc2nc3ccccc3nc2-n2nc(C)cc2C)cc1Cl 0.42%
CCOC(=O)c1ccccc1NC(=O)N1CCC(N2CCN(Cc3ccccc3)C(=O)C2=O)CC1 -0.714%
C[C@H]1[C@H](O)O[C@@H]2O[C@@]3(C)CC[C@@H]4[C@H](C)CC[C@@H]1[C@@]24OO3 -18.1%
Cc1ccc(-c2nc3nc(C)cc(Nc4ccccc4O)n3n2)cc1 8.01%
CCCC1=Nc2cc(C(=O)NCCc3ccc(OC)cc3OC)ccc2Sc2ccccc21 14.9%
CSc1ncc(C(=O)Nc2ccc(F)cc2F)c(-c2ccccc2)n1 0.789%
Cc1ccc2oc(-c3cc(NC(=O)c4ccco4)ccc3Cl)nc2c1 -9.16%
Cc1ccc(NC(=O)CN2C(=O)CCn3nc(-c4cccn4C)cc32)cc1 9.54%
COCCCNc1nc2c(S(=O)(=O)c3ccc(C)c(C)c3)nnn2c2ccc(Cl)cc12 -19.6%
CCOc1ccc(OCC)c(NC(=O)CCC(=O)N2CCOc3ccccc32)c1 7.59%
CNC(=O)COc1ccc(NC(=O)CCn2nc(-c3ccc(C)cc3)c3ccccc3c2=O)cc1 -2.98%
O=C(Nc1nc2nc(-c3ccccc3)cc(=O)n2[nH]1)c1ccc(Cl)cc1 5.98%
CCC(C)OC(=O)/C(C#N)=C\c1ccc(-c2ccccc2Cl)o1 (stereo unspecified) -6.59%
COc1ccc(-n2nc(C(=O)N3CCN(c4cccc(C)c4C)CC3)c3c4ccccc4n(C)c3c2=O)cc1 -10.5%
Cc1cn(C)c(CC(=O)NCc2ccccc2Cl)c1C(=O)O 3.27%
CCC(=O)N1c2ccccc2CC1C(=O)NCCc1ccc(C)cc1 (stereo unspecified) 2.8%
CCN(CC)CCNC(=O)c1nn(C)c2c1CS(=O)(=O)c1ccccc1-2 16.9%
Cc1ccc(CNC(=O)c2nn(C)c3c2CS(=O)(=O)c2ccccc2-3)cc1 1.43%
CC1=C(c2ccc(C(C)C)cc2)S(=O)(=O)NC1=NCc1ccccc1Br -3.48%
O=C(c1ccc(CSc2nc3ccncc3n2Cc2cccc(F)c2)cc1)N1CCCCC1 8.91%
CCOc1ccc(N(CC(=O)NCc2ccc(C)cc2)S(=O)(=O)c2c(C)noc2C)cc1 16.3%
CCOc1ccc(CCNC(=O)Cn2ncc3c(=O)oc4ccc(C)cc4c32)cc1 -3.61%
CCOC(=O)c1c(C)[nH]c(C)c1S(=O)(=O)N1CCC(C(=O)Nc2ccc(C)cn2)CC1 67.2%
CCOc1cc2[nH]c(=O)n(CCCC(=O)N3CCN(c4ccc(OC)cc4)CC3)c(=O)c2cc1OCC 2.21%
COc1cc(NC(=O)CN2C(=O)CN(C)C(=O)c3ccccc32)cc(OC)c1OC 6.21%
CCCCCCCCCC(=O)N[C@@H](Cc1c[nH]c2ccccc12)C(=O)N[C@H](CC(N)=O)C(=O)N[C@@H](CC(=O)O)C(=O)N[C@@H]1C(=O)NCC(=O)N[C@@H](CCCN)C(=O)N[C@@H](CC(=O)O)C(=O)N[C@H](C)C(=O)N[C@@H](CC(=O)O)C(=O)NCC(=O)N[C@H](CO)C(=O)N[C@@H]([C@@H](C)CC(=O)O)C(=O)N[C@@H](CC(=O)c2ccccc2N)C(=O)O[C@@H]1C 4.02%
CNC(=O)C1CCC(Cn2c(=O)c3sccc3n(CC(=O)Nc3ccc(C)c(F)c3)c2=O)CC1 (stereo unspecified) 3.59%
CCCCN1CC(c2nc3ccccc3n2CCCCOc2ccc(C)c(C)c2)CC1=O (stereo unspecified) 0.319%
Cc1cccc(CNC(=O)Cn2ccc3cc(S(=O)(=O)N4CCCC4)ccc32)c1 -5.24%
O=C(NCCN1CCN(c2cccc(Cl)c2)CC1)C1COc2ccccc2C1 (stereo unspecified) 3.47%
O=C1c2[nH]nc(-c3ccccc3O)c2C(c2cccc(Cl)c2)N1Cc1cccnc1 (stereo unspecified) 1.9%
CC(=O)N1CCCc2cc(S(=O)(=O)N(C)CC(=O)Nc3cccc(C)c3C)ccc21 2.69%
Cc1cccc(NC(=O)CS(=O)(=O)c2nc(-c3ccccc3)cn2-c2cccc(Cl)c2)c1C 0.236%
CN(C)S(=O)(=O)c1ccc(C(=O)NC2CC(=O)N(c3ccc4c(c3)OCCO4)C2)cc1 (stereo unspecified) -13.5%
Cc1ccc(S(=O)(=O)N(CCc2ccccc2)CC(=O)Nc2cc(C)ccc2C)cc1 6.05%
CCOc1ccccc1NC(=O)c1nc2nc(C)cc(C(F)F)n2n1 0.54%
COc1cccc(N2CCN(C(=O)C3CCN(S(=O)(=O)c4c(C)noc4C)CC3)CC2)c1 13.2%
Cn1cc(C(=O)NCc2ccccc2)c(=O)c2cc(S(=O)(=O)N3CCOCC3)ccc21 0.425%
CCCN1CCN(CCCNC(=O)Cn2nc(CC)n3c(cc4occc43)c2=O)CC1 0.82%
Cc1ccc2c(=O)cc(C(=O)N(Cc3ccc(N(C)C)cc3)C3CCS(=O)(=O)C3)oc2c1 (stereo unspecified) -4.92%

outcome, inactive:
COc1ccc(Cl)cc1NC(=O)CN(c1cccc(C)c1C)S(=O)(=O)c1ccccc1
Cc1ccc(N(C)S(=O)(=O)c2nnc(NC(=O)C3CCCCC3)s2)cc1
Cc1ccccc1NC(=O)c1c(NC(=O)Cc2ccccc2)sc2c1CCC2
O=C(NCCOCCn1c(=O)oc2ccccc21)Nc1ccc(Cl)cc1
CN(C)S(=O)(=O)n1cc(/C=C(\NC(=O)c2ccccc2)C(=O)NCCCn2ccnc2)c2ccccc21
COc1ccc(N2CC(NC(=O)CCc3ccccc3)CC2=O)cc1OC (stereo unspecified)
COC(=O)c1scc(-c2ccc(C)cc2)c1S(=O)(=O)N1CCN(c2ccc(OC)cc2)CC1
O=C(Cn1c(=O)n(CC2CCCO2)c(=O)c2ccccc21)Nc1cccc(Cl)c1 (stereo unspecified)
CCS(=O)(=O)N1CCc2cc(C(=O)NCc3ccccc3)ccc21
COc1cc(OC)c(NS(=O)(=O)c2cc(-c3cnc(C)o3)ccc2OC)cc1Cl
O=C(CSCc1nc2cccnc2n1C1CCCCC1)NCc1cccc(Cl)c1
CCOC(=O)c1ccc(N2C(=O)c3n[nH]c(-c4ccco4)c3C2c2ccc(O)c(OC)c2)cc1 (stereo unspecified)
Cc1cccc(NC(=O)Cn2c(=O)nc(-c3ccccc3)c3ccccc32)c1C
CCOC(=O)c1c(C)oc2ccc(N(C(=O)c3ccncc3)S(=O)(=O)c3ccc(Br)cc3)cc12
COc1ccc(C)cc1NC(=O)C1CCCN(S(=O)(=O)c2ccc3[nH]c(=O)ccc3c2)C1 (stereo unspecified)
Cc1ccc(F)c(NC(=O)Nc2ccc3snnc3c2)c1
COc1ccc(OC)c(NS(=O)(=O)c2ccc3[nH]c4c(c3c2)CCCCC4)c1
CCOc1ccc(CCNC(=O)c2cn(CC)c3ccc(S(=O)(=O)N4CCCCCC4)cc3c2=O)cc1OCC
COc1cc(C2C(C(=O)Nc3ccc(C)cc3C)=C(C)Nc3nc4ccccc4n32)cc(OC)c1OC (stereo unspecified)
CCOC(=O)c1cc(-c2ccc(C)cc2)n(CCC(=O)Nc2ccc(C(C)C)cc2)c1C
O=C(NC1CC(=O)N(c2ccc(Cl)cc2)C1)c1ccc2c(c1)OCO2 (stereo unspecified)
